{
  "source": "ChEMBL document CHEMBL4888484",
  "about": "“Replenishing the malaria drug discovery pipeline: Screening and hit evaluation of the MMV Hit Generation Library 1 (HGL1) against asexual blood stage Plasmodium falciparum ,using a nano luciferase reporter read-out” (2022)",
  "note": "About 540 (0.36%) of roughly 150,000 compounds showed an effect of 50% or more. The list shows a part of the results.",
  "data": [
    {"test_system": "Plasmodium falciparum", "experiment": "Primary screen in NF54 nanoGlo assay, in single point, at 2uM, 72h; a lower Z score goes with more inhibition", "assay_type": "functional, Erythrocyte", "settings": "timepoint 72 hour", "units": {"% Inhibition": "%"}, "values": [
      {"compound": "Cc1cc(-c2ccc(S(=O)(=O)N3CCC(C(=O)N4CCC[C@H](C)C4)CC3)o2)[nH]n1", "% Inhibition": -10, "Z score": 1.6},
      {"compound": "CCN(CCn1cccn1)Cc1cncn1C1CC1", "% Inhibition": -7, "Z score": 1.49},
      {"compound": "COc1ccc(NC(=O)COc2ncccn2)c(OC)c1", "% Inhibition": -12, "Z score": 1.39},
      {"compound": "COc1ccccc1C1CCC(C)CN1CC(=O)NC(N)=O", "note": "(stereo unspecified)", "% Inhibition": 5, "Z score": -0.77},
      {"compound": "O=C(NC[C@H](O)CN1CCCC1=O)NC1CCCCC1", "% Inhibition": -14, "Z score": 2.66},
      {"compound": "O=C1NCCN2CCN(C(=O)C3Cc4ccccc4C3)C[C@@H]12", "% Inhibition": -17, "Z score": 1.72},
      {"compound": "Cc1cc(C)c(NC(=O)Cn2ncn3c(C)c(C(=O)NCc4ccc(F)cc4)c(C)c3c2=O)c(C)c1", "% Inhibition": 3, "Z score": -0.4},
      {"compound": "NC(=O)COc1cccc(-c2cn(CC3CCOCC3)nn2)c1", "% Inhibition": -8, "Z score": 1.05},
      {"compound": "Cc1nnc(NCCN2CCCCCC2)c(C#N)c1C", "% Inhibition": -5, "Z score": 1.07},
      {"compound": "Nc1nc(C2(c3ccc(Cl)cc3)CCCC2)cs1", "% Inhibition": 5, "Z score": -0.62},
      {"compound": "O=C(CCCn1nnnc1CN1CCc2ccccc2C1)NCCc1cscn1", "% Inhibition": -9, "Z score": 1.62},
      {"compound": "CCc1cnc(C)nc1N1CCC[C@@]2(CCC(=O)N(CCc3c[nH]cn3)C2)C1", "% Inhibition": 2, "Z score": -0.25},
      {"compound": "CC(CNC1CCN(Cc2ccccn2)CC1C)Cc1cccs1", "note": "(stereo unspecified)", "% Inhibition": -7, "Z score": 0.62},
      {"compound": "CCCCNC(=O)CN(C)[C@@H](C(=O)O)c1ccc(OC(C)C)cc1", "% Inhibition": 8, "Z score": -1.07},
      {"compound": "Cc1nc2ccccc2c2oc(C(=O)NC3CCC(C)CC3)cc12", "note": "(stereo unspecified)", "% Inhibition": 4, "Z score": -0.55},
      {"compound": "COCC1(S(=O)(=O)NC2CCOC2C)CC1", "note": "(stereo unspecified)", "% Inhibition": -4, "Z score": 0.77},
      {"compound": "CS(=O)(=O)N1CCC[C@H]1C(=O)N1CCc2c(Cl)cccc2C1", "% Inhibition": 0, "Z score": -0.09},
      {"compound": "O=c1[nH]c(CC2CC2)nc2c1Cc1ccccc1OC2", "% Inhibition": 3, "Z score": -0.53},
      {"compound": "CN(CCN(C)C(=O)c1ccc(F)cn1)C(=O)c1ccc(F)cn1", "% Inhibition": -8, "Z score": 0.86},
      {"compound": "CC(Cn1cccn1)C(=O)N1CCCC1C1CCCN1C", "note": "(stereo unspecified)", "% Inhibition": -5, "Z score": 0.48},
      {"compound": "CN(Cc1ccc(-n2cccn2)cc1)C(=O)c1ncoc1C1CC1", "% Inhibition": -13, "Z score": 1.17},
      {"compound": "COC(=O)c1cccc(OS(=O)(=O)NC(=O)OC[C@@H]2CCCN3CCCCC23)c1", "note": "(stereo partly specified)", "% Inhibition": 6, "Z score": -0.88},
      {"compound": "CCC(C)CC(=O)NCC1Cc2cc(C)cc(-c3ccc(OC)nn3)c2O1", "note": "(stereo unspecified)", "% Inhibition": 1, "Z score": -0.11},
      {"compound": "Cn1cnnc1NC(=O)[C@H](Oc1cccc(Br)c1)c1ccccc1", "% Inhibition": -4, "Z score": 0.52},
      {"compound": "O=C(CCn1cc(Cl)cn1)N1CCN(c2ccc3[nH]ncc3c2)C(=O)C1", "% Inhibition": -9, "Z score": 1.29},
      {"compound": "CC(=O)N(C)CC(=O)NCCCCc1nc(-c2ccccn2)cs1", "% Inhibition": -6, "Z score": 0.76},
      {"compound": "CC(=O)N[C@@H]1C[C@H](Cc2ccccc2)O[C@H](c2ccc(-n3cncn3)cc2)C1", "% Inhibition": -7, "Z score": 1.06},
      {"compound": "CC(C)N(C)S(=O)(=O)N1CCO[C@@H](C)C1", "% Inhibition": -12, "Z score": 1.57},
      {"compound": "C[C@]1(CCCO)CCCN1S(=O)(=O)c1c[nH]c(C(=O)N2CCCC2)c1", "% Inhibition": -10, "Z score": 1.15},
      {"compound": "CC1CN(CCCNC(=O)c2ccoc2C2(O)CCOCC2)CC(C)O1", "note": "(stereo unspecified)", "% Inhibition": -9, "Z score": 0.83},
      {"compound": "Cn1cc(-c2noc(C3(c4ccccc4F)CC3)n2)cn1", "% Inhibition": -2, "Z score": 0.32},
      {"compound": "COCCN(CC1CCN(Cc2ccccc2F)CC1)C(=O)CCn1cnnn1", "% Inhibition": -1, "Z score": 0.14},
      {"compound": "Cc1ccc(-c2nnc([C@H]3CN(C(=O)CC(C)(C)C)CC34CCOCC4)o2)cc1", "% Inhibition": -6, "Z score": 1.18},
      {"compound": "CCc1nnc(N2CCC[C@H](CNS(=O)(=O)Cc3ccccc3)C2)s1", "% Inhibition": -14, "Z score": 2.62},
      {"compound": "CC1CC(C(=O)NCCCn2cn[nH]c2=O)CC(C)(C)C1", "note": "(stereo unspecified)", "% Inhibition": 0, "Z score": 0.05},
      {"compound": "COc1ccc(CNC[C@]2(COc3ccc(S(C)(=O)=O)cc3)C[C@@H](O)[C@@H](O)C2)cc1", "% Inhibition": -6, "Z score": 0.96},
      {"compound": "CC(C)(Oc1ccc(Cl)cc1)C(=O)N1CCN(c2cc(-n3cncn3)ncn2)CC1", "% Inhibition": -14, "Z score": 2.1},
      {"compound": "O=C(NCCn1ccnn1)Nc1c(F)cccc1Oc1ccccc1", "% Inhibition": -7, "Z score": 0.94},
      {"compound": "COc1ccc(-n2nnnc2C2(Nc3ccc4c(c3)OCO4)CCCC2)cc1", "% Inhibition": -17, "Z score": 2.61},
      {"compound": "c1ccc2c(C(c3ccc4c(c3)OCO4)c3c[nH]c4ccccc34)c[nH]c2c1", "% Inhibition": -13, "Z score": 2.16},
      {"compound": "O=C(CCn1cccn1)N[C@H]1CC(=O)N(CC2CCCCC2)C1", "% Inhibition": 11, "Z score": -2},
      {"compound": "COCCN(CC(=O)Nc1nc(-c2ccccc2)cn1-c1ccc(OC)c(OC)c1)C(=O)c1ccc(C)cc1", "% Inhibition": -18, "Z score": 2.63},
      {"compound": "Cn1c(=O)c(C(=O)NCc2cccc(Cl)c2)nc2cccnc21", "% Inhibition": -1, "Z score": 0.12},
      {"compound": "O=C(Nc1ccccc1)C1CCN(c2cc(-c3cccc(F)c3)ncn2)CC1", "% Inhibition": -1, "Z score": 0.16},
      {"compound": "Cc1cc(=O)n(CC(=O)N2CCc3ccccc32)c(Nc2cccc(F)c2)n1", "% Inhibition": 11, "Z score": -1.42},
      {"compound": "CCC1(CC)CN(Cc2ccc(O)c(OC)c2)CC[S@@+]1[O-]", "% Inhibition": 3, "Z score": -0.35},
      {"compound": "O=C(NCc1ccccc1)[C@@H]1COC2(CCN(C(=O)Cc3cccs3)CC2)N1C(=O)c1ccc(F)cc1", "% Inhibition": -7, "Z score": 0.84},
      {"compound": "c1ccc(-n2ncc3c(NCc4cccnc4)nnnc32)cc1", "% Inhibition": -7, "Z score": 1.09},
      {"compound": "Cc1cccc(Cn2nc(C)nc2COCC(F)(F)C(F)F)c1", "% Inhibition": -6, "Z score": 1.15},
      {"compound": "COc1cccc(NC(=O)[C@H](Cc2ccccc2)NS(=O)(=O)c2ccc3c(c2)c(=O)n(C)c(=O)n3C)c1", "% Inhibition": -3, "Z score": 0.41},
      {"compound": "c1ccc(-c2nnc([C@H]3CCN(Cc4c[nH]c5ccccc45)C3)o2)cc1", "% Inhibition": -12, "Z score": 1.8},
      {"compound": "Cc1cc(C)n(-c2nc3c(c(=O)n2CC(=O)NC2CCCCC2)CCCC3)n1", "% Inhibition": -10, "Z score": 1.77},
      {"compound": "CC(C)(C)c1cnc(CN2CCC(N3CCCNC3=O)CC2)s1", "% Inhibition": -11, "Z score": 1.13}
    ]}
  ]
}
